Experimental data taken from the supplement of paper PMC4967469.
IC50 is the fitted dose that halves viability relative to control wells, and lower means more sensitive; fits outside the tested doses are given as limits. AUC is the area under the same curve over the 256-fold range up to the top dose, as a fraction; the more sensitive the line, the further below 1. Any top dose called inferred is not printed in the source and was worked back from the curve model.

What was measured:
Assay in all cases: Viability of human cancer cell lines after 72 h of drug (GDSC screen)
[1] = compound: CC(C)N(CCCNC(=O)Nc1ccc(C(C)(C)C)cc1)C[C@H]1O[C@@H](n2cc(Br)c3c(N)ncnc32)[C@H](O)[C@@H]1O [SGC0946]; conditions: top dose 0.5 µM; top dose inferred
Experimental: (§1)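 Human cancer cell lines in 384-well plates, medium with 10% serum, drug for 72 h over a 256-fold dose range (nine 2-fold or five 4-fold steps up to the top dose). Adherent lines were fixed and stained with the nucleic acid dye Syto60, suspension lines read with resazurin; signal relative to control wells, capped at 0 and 100%. One two-parameter sigmoid per drug and line, fitted in a mixed model over all curves with the slope shared within a line.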

[2] = compound: CCC/C=C/C=C/C(=O)O[C@H]1/C(=C/C(=O)OC)C[C@H]2C[C@H]([C@@H](C)O)OC(=O)C[C@H](O)C[C@@H]3C[C@H](OC(C)=O)C(C)(C)[C@](O)(C[C@@H]4C/C(=C/C(=O)OC)C[C@H](/C=C/C(C)(C)[C@]1(O)O2)O4)O3 [Bryostatin 1]; conditions: top dose 0.008 µM; top dose inferred
Experimental: as §1

[3] = compound: COc1ccc(COc2ccc(Cc3cnc(N)nc3N)cc2OC)cc1 [GW-2580]; conditions: top dose 20 µM; top dose inferred
Experimental: as §1

[4] = compound: Nc1cccc2c1CN(C1CCC(=O)NC1=O)C2=O [Lenalidomide]; conditions: top dose 5 µM; top dose inferred
Experimental: as §1

Cell Line	AUC [1]	IC50 [1]	AUC [2]	IC50 [2]	AUC [3]	IC50 [3]	AUC [4]	IC50 [4]
SW1573 (lung adenocarcinoma, adherent)	0.975	> 500 nM	0.927	> 8 nM	0.981	> 20000 nM	0.978	> 5000 nM
BB49-HNC (head and neck, adherent)	0.969	> 500 nM	0.931	> 8 nM	0.967	> 20000 nM	0.978	> 5000 nM
EW-1 (Ewing sarcoma, semi-adherent)	0.982	> 500 nM	0.985	> 8 nM	0.988	> 20000 nM	0.989	> 5000 nM
NCI-H2110 (non-small cell lung carcinoma, adherent)	0.985	> 500 nM	0.961	> 8 nM	0.986	> 20000 nM	0.978	> 5000 nM
NCI-H838 (lung adenocarcinoma, adherent)	0.983	> 500 nM	0.97	> 8 nM	0.966	> 20000 nM	0.987	> 5000 nM
HA7-RCC (kidney, adherent)	0.982	> 500 nM	0.949	> 8 nM	0.979	> 20000 nM	0.985	> 5000 nM
LC4-1 (lymphoblastic leukaemia, suspension)	0.982	> 500 nM	0.984	> 8 nM	0.951	> 20000 nM	0.983	> 5000 nM
T84 (large intestine, adherent)	0.975	> 500 nM	0.986	> 8 nM	0.978	> 20000 nM	0.989	> 5000 nM
SBC-1 (small cell lung carcinoma, suspension)	0.987	> 500 nM	0.989	> 8 nM	0.958	> 20000 nM	0.987	> 5000 nM
PF-382 (T-cell lymphoblastic leukaemia, suspension)	0.99	> 500 nM	0.985	> 8 nM	0.991	> 20000 nM	0.986	> 5000 nM
ETK-1 (biliary tract, adherent)	0.979	> 500 nM	0.979	> 8 nM	0.983	> 20000 nM	0.972	> 5000 nM
SK-MM-2 (myeloma, suspension)	0.981	> 500 nM	0.986	> 8 nM	0.981	> 20000 nM	0.987	> 5000 nM
TE-12 (oesophagus, suspension)	0.978	> 500 nM	0.953	> 8 nM	0.957	> 20000 nM	0.98	> 5000 nM
NCI-H747 (large intestine, adherent)	0.979	> 500 nM	0.97	> 8 nM	0.973	> 20000 nM	0.98	> 5000 nM
Calu-6 (lung adenocarcinoma, adherent)	0.981	> 500 nM	0.948	> 8 nM	0.98	> 20000 nM	0.984	> 5000 nM
CAL-33 (head and neck, adherent)	0.977	> 500 nM	0.965	> 8 nM	0.985	> 20000 nM	0.918	> 5000 nM
SNU-C1 (large intestine, suspension)	0.976	> 500 nM	0.973	> 8 nM	0.977	> 20000 nM	0.98	> 5000 nM
SK-MEL-3 (melanoma, adherent)	0.962	> 500 nM	0.983	> 8 nM	0.981	> 20000 nM	0.984	> 5000 nM
VMRC-MELG (melanoma, adherent)	0.986	> 500 nM	0.984	> 8 nM	0.982	> 20000 nM	0.987	> 5000 nM
T-T (oesophagus, adherent)	0.974	> 500 nM	0.958	> 8 nM	0.976	> 20000 nM	0.963	> 5000 nM
HCC1428 (breast, adherent)	0.986	> 500 nM	0.965	> 8 nM	0.988	> 20000 nM	0.983	> 5000 nM
NCI-H2347 (lung adenocarcinoma, adherent)	0.971	> 500 nM	0.976	> 8 nM	0.98	> 20000 nM	0.983	> 5000 nM
647-V (bladder, adherent)	0.983	> 500 nM	0.986	> 8 nM	0.979	> 20000 nM	0.987	> 5000 nM
OE21 (oesophagus, adherent)	0.969	> 500 nM	0.911	> 8 nM	0.978	> 20000 nM	0.944	> 5000 nM
PC-14 (lung adenocarcinoma, adherent)	0.984	> 500 nM	0.943	> 8 nM	0.989	> 20000 nM	0.988	> 5000 nM
NCI-H1703 (lung adenocarcinoma, adherent)	0.975	> 500 nM	0.98	> 8 nM	0.965	> 20000 nM	0.979	> 5000 nM
Hs-578-T (breast, adherent)	0.985	> 500 nM	0.987	> 8 nM	0.987	> 20000 nM	0.987	> 5000 nM
COR-L23 (large cell lung carcinoma, adherent)	0.986	> 500 nM	0.967	> 8 nM	0.986	> 20000 nM	0.988	> 5000 nM
